Reference: the RNAGym collection of RNA variant scans (doi:10.7554/elife.90254)
Read counts are not given, so values of variants with three or more changes are uncertain.

B1: LINE1-mini (parent)
chain: GGCAGAGCUCAACACAGCGUGGCAAAGUGGCUGUGGCUAGACUGCC

Variants of: B1
Assay: self-cleavage, relative activity (ratio to wild type); higher = more cleavage; in vitro, sequencing; the parent is a self-cleaving ribozyme

Variant | self-cleavage
G17U U20A G22U G35U | 0.02
G33C G36U C42U | 0.05
A11C A24G C42A | 0
G17A U20A C37A | 0.05
C3U G7A U28A G30C U32G G35U | 0.14
G1C A39U C42G | 0.04
G2C G7A U9G G21A G22C | 0.09
A4U C8A U9C G17A C18U C31A G44A | 0.01
A6C C10A A26G | 0.01
G17U G27C C31G G33C | 0.03
G2U A25G G27U C46A | 0.02
G7C C10U G33A U34A | 0.06
G5U G30A A41U | 0.04
C10A C37A C42A | 0.01
C8U A14G U20A A39G | 0.01
G7C C8A A16U G40U | 0.45
A4U G17C C18A G19A | 0.02
A4G G19C A26G U32A G35U U38A | 0.04
G21A A25C C42A | 0.02
G21A C23U A25C G27A | 0.91
G7C C8U G35U | 0.15
A12G G29U C37A C46U | 0.42
C10A G44C C45A | 0
G1U C8A G29U | 0.25

Variant | self-cleavage
A6U G19U U20A G44C | 0.63
A4G A11U G22C G29A G40A G44U | 0.01
G27C U28G C37U | 0.01
C15U G17C A26G | 0.04
C3U G40A C46G | 0.06
C3A U9G G22U | 0.33
A6U G29U G35C G40U | 0.08
A4C G17A U43G | 0
U20G A26C C45A | 0.53
C10A U34G C37U | 0.01
G2C C10G G21U C46G | 0.03
C18U G21U G35U A41U | 0.04
A4C C13U G17A G40A | 0.06
G2C A26U C31A C42G C45U | 0.02
G1U U20A G21C | 0.03
C10U G22U A26U G33A | 0.09
G29U A39G G44A | 0.03
G7U A16G U28G C37G | 0.01
G2A A11C C15A A16U A41U | 0.02
A12G U20G G22U | 0.03
C13A U28A U34G G44C | 0.01
G2U C23G G30U A41U | 0
G2A U9C C10A A39C | 0.06
G1A C37G A39G U43C | 0.02

Variant | self-cleavage
G2A A4C C23A U32A C37G C42A | 0.08
G2U G27A U28A U38C | 0.01
C23A G27C C37G | 0.02
A4G G5C C10U A12C A14U G30C G35C | 0.01
G36A G40U C45U | 0.02
C23U G30A U43A | 0.27
C15G G40C C42A | 0.04
G1U C8U G40U A41G | 0.03
A12U G21C G29C | 0.19
U20A A25G G30U A41U | 0.05
C31A A39C A41U | 0.03
C8U G22C G33U G44A C45U | 0.05
G29U C37U U38C | 0.04
C3U A16U U43A | 0.1
C3A C8U C15U | 0.36
A4C A11C G22U | 0.02
G2U G17A C23G | 0.03
C3U A6U G17U G36A | 0.11
A25U A26U G40A | 0.05
C15G G17C C45G C46G | 0.01
G2U C13A C45A | 0.09
G2U G33U G36C C45U C46U | 0
G5C A6C G30A C45A | 0.22
A16G C18U G21C G27A C31U | 0.02

Variant | self-cleavage
G7A U9C A11G U34G | 0.04
C13A C18U G21U G27C A41C | 0.01
G30U C31A U38G | 0.02
G2A A16U A25U | 0.31
G1A C8G U32C G33C G44A | 0.04
A14U A16U G22U A26U G30U U32C | 0.2
C8U C18A U34C | 0.05
C23A A24U G40A C42A | 0.14
C8U C15A A26C G27A U34G | 0.04
G1A C8A C46A | 1.41
A11C G19U G21A G27C | 0.12
C10A G17U C23U | 0.1
C8A U28C G29A G35U C46G | 0.03
A16U G21U A26C C31A G33A | 0.17
U9A A12G C15G | 0.04
A4U A11C G19U C46A | 0.01
C13G C15A G40C | 0.18
A4G C8G G17U G21A G36U | 0.02
A6C A14G G44U | 0.04
A26G U43A G44A | 0.18
C8G U34C C46U | 0.11
G27C G33A C37A | 0.03
A4C A16C G21U C31U C46A | 0.02
A6G U9G G35U G36A G40C | 0.03

Variant | self-cleavage
C8U G29U C45G | 0.79
A6U C8U A12C G17C G19C | 0
C15U A16G G30U | 0.01
C18A G21U A39G | 0.04
A6U A14U A24C G27U G44A | 0.03
G7C U34C G40U | 0.04
A24C U32G U34G G44A | 0.01
G5U A24G G35A A39G | 0.1
G7U G30C A41U C45A | 0.01
C3U C18U G35U A39U | 0.14
G2C A6C U9C A24G | 0.01
G2U G5U U28C | 0.02
A4C A16U G19U C46U | 0.09
A14U C15A G27C G29C | 0.13
G17C C23A G44C | 0.11
G2U G17U G30C | 0.06
C8G C31U C37U G40U | 0.03
G1C G7C C13U C31U | 0.02
G1U A14G U28G U32A G40U C42U U43C | 0.01
A14U G22U U38A | 0.49
G1C A24G G36C | 0
C37U U38A G44C | 0.02
C10U C13U A39C C42G C46U | 0.03
C3G A12G U20G U43C | 0.01

Variant | self-cleavage
C15A G17A G21U | 0.01
G2U A14C A26G | 0
G40U G44C C45G | 0.04
A12U G19A U20G G27C U34C G44U | 0.01
A24G G27U G36U | 0.02
G2U G19C U32G | 0.03
G2U C3U U9C A24C G27C C37U A39G | 0.01
A4G A6C A11C G30U | 0.01
A24G C31U C37A A39G C46A | 0.04
G1U C23U A26C G29A U32C | 1.04
G7A A14G C18G G36U A39C | 0.2
C15A U20G G21U G30U G36A C46A | 0.02
A6U G17A G21A G27A U28G C31G | 0.13
C3U C10A G22U C31A | 0.01
A12G A26C U38C U43C C46G | 0
A4U C13G C15G A24G G36A | 0.01
A4C A12C A16G G19A | 0.05
G1U G30A A41C C42G | 0.03
C13A G19A G29U U43A | 0.09
U38G A39U G44U | 0.08
G1U A6U C8U A39U | 0.04
C15A G17C G21U | 0.09
A11G A14C G17U A25G | 0.02
A39G C42A U43C | 0.07

Variant | self-cleavage
U9G C10U C18U | 1.1
C13A A16U C31U C37A C46U | 0.06
A16U A26G U43A | 0
C10G U28A G29U U32G C42A | 0.01
G1U A4G C23A G27C G35A | 0.38
G2U A25U G29A | 0.07
A11C A24C U34C G44U | 0
G22C G29C G36C | 0.16
C10G G22U A39G G44C | 0.01
G5U C42A C45A | 0.25
G1C C13A G17U G22A G36U G40U | 0.03
C8A U9A G33A C42G | 0.07
C3U G33C U34A | 0.15
A16G G27A U34A | 0.03
A16G G21U C45U | 0.57
G2C A39G G44U | 0.33
C3G C15U U28C G30A | 0.24
G7A G19U A24C | 0.1
C13U G17A G19C U32C | 0.14
A6C A11G C42A | 0.01
G22U G27A C31U C42G | 0.04
G1U A14G G22C G27A G36C | 0.01
U28C U34G C45A | 0.02
